# Measured values from the supplement of paper PMC9174493.
# The other results are listed elsewhere or left out. Single values of this set are uncertain. Values with irradiation are relative to irradiated vehicle.
# Tested on: A549-Dual
# Experiment: ISRE reporter (Lucia luciferase) activity, viability-corrected, relative to vehicle (fold change vs vehicle); higher = more activation of STING-IRF / NF-kB immune response reporter
# Settings: 10 µM; irradiation: none
row,SMILES,ISRE reporter
1,CCC1OC(=O)C(C)C(OC2CC(C)(OC)C(O)C(C)O2)C(C)C(OC2OC(C)CC(N(C)C)C2O)C(C)(O)CC(C)C(=O)C(C)C(O)C1(C)O.N#CS (configuration not stated) [Erythromycin thiocyanate],0.859
2,Cl.OC(c1cc(C(F)(F)F)nc2c(C(F)(F)F)cccc12)C1CCCCN1 (configuration not stated) [Mefloquine HCl],2.27
3,OCC1OC(OC2(CO)OC(CO)C(O)C2O)C(O)C(O)C1O (configuration not stated) [Inulin],0.822
4,CC1c2cccc(O)c2C(=O)C2=C(O)C3(O)C(=O)C(C(N)=O)=C(O)C(N(C)C)C3C(O)C21 (configuration not stated) [Doxycycline],0.536
5,Oc1c(I)cc(Cl)c2cccnc12 [Clioquinol],0.306
6,CCCCCC(O)/C=C/C1C(O)CC(O)C1C/C=C\CCCC(=O)O.NC(CO)(CO)CO (configuration not stated) [Dinoprost tromethamine],0.614
7,COc1ccccc1O [Guaiacol],1.29
8,CS(=O)(=O)CCNCc1ccc(-c2ccc3ncnc(Nc4ccc(OCc5cccc(F)c5)c(Cl)c4)c3c2)o1 [Lapatinib],1.82
9,CC(=O)Oc1ccc(C(=C2CCCCC2)c2ccc(OC(C)=O)cc2)cc1 [Cyclofenil],0.696
10,COc1cc(C=O)ccc1O [Vanillin],0.709
11,Cc1ccsc1C(=CCCN1CCCC(C(=O)O)C1)c1sccc1C (configuration not stated) [Tiagabine],1.25
12,COC(=O)NC(C(=O)NC(Cc1ccccc1)C(O)CN(Cc1ccc(-c2ccccn2)cc1)NC(=O)C(NC(=O)OC)C(C)(C)C)C(C)(C)C (configuration not stated) [Atazanavir],0.815
13,CCOC(=O)C(C)(C)Oc1ccc(Cl)cc1 [Clofibrate],0.694
14,Cl.Cl.OCCOCCN1CCN(C(c2ccccc2)c2ccc(Cl)cc2)CC1 (configuration not stated) [Hydroxyzine 2HCl],1.16
15,CC1(C)SC2C(NC(=O)C(N)c3ccccc3)C(=O)N2C1C(=O)[O-].[Na+] (configuration not stated) [Ampicillin sodium],0.847
16,Cn1c(=O)c2c(ncn2CC(O)CO)n(C)c1=O (configuration not stated) [Dyphylline],0.908
17,CCn1cc(C(=O)O)c(=O)c2ccc(C)nc21 [Nalidixic acid],0.892
18,Cl.NC(CO)C(=O)NNCc1ccc(O)c(O)c1O (configuration not stated) [Benserazide HCl],1.25
19,CCCCCCCCCCCCCC(=O)O [Myristic Acid],0.72
20,O=C([O-])CCSCC1OC2OC3C(CSCCC(=O)[O-])OC(OC4C(CSCCC(=O)[O-])OC(OC5C(CSCCC(=O)[O-])OC(OC6C(CSCCC(=O)[O-])OC(OC7C(CSCCC(=O)[O-])OC(OC8C(CSCCC(=O)[O-])OC(OC9C(CSCCC(=O)[O-])OC(OC1C(O)C2O)C(O)C9O)C(O)C8O)C(O)C7O)C(O)C6O)C(O)C5O)C(O)C4O)C(O)C3O.[Na+].[Na+].[Na+].[Na+].[Na+].[Na+].[Na+].[Na+] (configuration not stated) [Sugammadex (sodium)],0.529
21,OCC1OC(OC2OC=CC3C(O)C4OC4(CO)C23)C(O)C(O)C1O (configuration not stated) [Catalpol],0.679
22,C#CC1(O)CCC2C3CCC4=Cc5oncc5CC4(C)C3CCC21C (configuration not stated) [Danazol],0.981
23,CC(=O)O.N=C(N)N/N=C/c1c(Cl)cccc1Cl [Guanabenz Acetate],0.943
24,COS(=O)(=O)[O-].COc1cc(N)cn[n+]1-c1ccccc1 [Amezinium (methylsulfate)],0.57
25,CC(C)NNC(=O)c1ccncc1 [Iproniazid],0.689
26,CC(C)(Oc1ccc(CCNC(=O)c2ccc(Cl)cc2)cc1)C(=O)O [Bezafibrate],0.729
27,NC(=O)NC1NC(=O)NC1=O (configuration not stated) [Allantoin],0.774
